Measurements taken from the supplement of paper PMC3334620.
In all, about 33,000 sequences were measured (“E-score (-0.5 to 0.5)”: median about -0.035, highest 2% from about 0.35 on). The list shows a part of the results.

Target: T1, Pdr3 (UniProt P33200)
T1 sequence: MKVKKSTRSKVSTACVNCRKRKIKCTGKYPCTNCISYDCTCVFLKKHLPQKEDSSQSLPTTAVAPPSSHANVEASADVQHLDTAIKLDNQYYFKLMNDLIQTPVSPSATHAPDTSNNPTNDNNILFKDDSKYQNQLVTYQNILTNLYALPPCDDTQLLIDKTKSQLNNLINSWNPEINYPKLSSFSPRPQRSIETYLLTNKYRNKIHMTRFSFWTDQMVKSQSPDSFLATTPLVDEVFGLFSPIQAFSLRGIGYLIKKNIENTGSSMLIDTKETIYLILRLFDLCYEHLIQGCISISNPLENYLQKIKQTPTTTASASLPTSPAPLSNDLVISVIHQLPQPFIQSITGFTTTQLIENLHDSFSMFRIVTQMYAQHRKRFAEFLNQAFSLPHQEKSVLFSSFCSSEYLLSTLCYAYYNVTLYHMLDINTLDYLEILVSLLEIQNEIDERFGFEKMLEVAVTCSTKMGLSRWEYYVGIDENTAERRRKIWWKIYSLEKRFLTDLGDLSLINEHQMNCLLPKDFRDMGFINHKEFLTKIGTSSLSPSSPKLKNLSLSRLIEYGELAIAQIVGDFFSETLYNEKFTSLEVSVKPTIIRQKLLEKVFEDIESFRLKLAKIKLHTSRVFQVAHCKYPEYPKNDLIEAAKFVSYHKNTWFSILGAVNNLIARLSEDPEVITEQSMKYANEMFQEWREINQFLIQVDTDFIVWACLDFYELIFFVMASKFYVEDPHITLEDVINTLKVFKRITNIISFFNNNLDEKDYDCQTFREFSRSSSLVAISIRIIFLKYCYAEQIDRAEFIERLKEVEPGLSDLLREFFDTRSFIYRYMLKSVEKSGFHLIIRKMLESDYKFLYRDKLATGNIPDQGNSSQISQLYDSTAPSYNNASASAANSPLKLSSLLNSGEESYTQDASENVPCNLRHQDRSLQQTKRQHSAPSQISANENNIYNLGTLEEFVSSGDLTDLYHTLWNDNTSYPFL
Assay: PBM E-score (8-mer binding enrichment) (E-score (-0.5 to 0.5)); higher = stronger / more preferred TF binding; most listed sequences are background and not binding sites
Conditions: protein concentration: 200 nM; construct: GST-full length
In short: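 For each ungapped eight-base word taken together with its reverse complement, the Universal PBM Analysis Suite assigned an E-score. Binding data came from GST-tagged yeast transcription factors, applied at about 100-200 nM, on universal all-10-mer Agilent arrays made double-stranded by primer extension. Fluorescent anti-GST marked bound protein, and scans were normalised with masliner.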

Sequence	PBM E-score
GAACGCAA	0.133
CTTGCGAA	0.131
ACTGCGTC	-0.167
ATCGTCGG	0.0957
ACTCGTTC	-0.119
TAGCACCA	-0.203
GCGAGTCA	-0.141
CGCAACTC	0.117
AGGTTAGG	-0.128
AACAAAAA	-0.0088
ACCCAGGT	-0.167
ACTCTTTA	-0.279
AATGCGTA	-0.151
GTGCGTGA	0.134
CTCGCGCC	0.0655
AGCGACTA	-0.241
CAAGGCTA	-0.0899
ACATCCTA	-0.218
CTTGCATC	-0.0942
ATGCCGCC	0.213
AAAAGACC	-0.287
CATGCAAC	0.0685
CCAGCGAC	-0.106
CTAATAAC	-0.071
AGTATAGG	0.0506

Sequence	PBM E-score
AGCAATGC	0.0462
AGATGGGA	-0.2
AGTCGATA	-0.0789
AGACAGAT	0.0686
ATAAGGCC	-0.0419
AACTCTTG	-0.194
AGTCTGGG	-0.297
AACACGGC	0.154
GTGCGCCA	0.0168
GTAAAAAA	0.00467
TGGCTAAA	-0.145
ATTCCTAA	-0.0375
CTCTGCAA	-0.0431
TGTCATAA	-0.142
GCGACTCC	-0.0745
GATCAAAA	-0.143
AAACGAAG	-0.223
CGACGTTC	-0.144
ATCTTAGA	0.045
ATTATGTA	0.0176
GTCGAATA	0.0155
CATAATGG	-0.103
AGACGGAG	0.216
ATACGCTA	-0.0771
GATATGAA	0.00428

Sequence	PBM E-score
CACAGCGA	0.133
CCGTTACC	0.228
CGTCTCTC	-0.0562
ACCGGTTG	0.208
ACTCTTCA	-0.258
CACTAATG	-0.0468
ACCAGTCT	-0.248
GTGACGCA	-0.114
AAGTATAC	-0.0917
ACGTCTGG	-0.166
ACTCCCCC	-0.0859
ACTTGAAC	-0.0736
AGGCAGTA	-0.251
TAACGAAA	0.0473
GAACATAC	0.0175
ACAAAAAC	-0.0569
GGCAACAC	0.0901
TCCGTACA	0.299
GTATCTAA	0.0522
CGCAGATA	-0.0667
ATCTCGAC	0.0627
GAATGGCA	0.0147
CAGGAGGA	-0.292
GACTACAA	-0.207
ACGAGCGA	-0.185

Sequence	PBM E-score
GCGCACAA	0.0642
AAGAATAT	-0.103
CTAGTTGC	-0.12
ACAGTGCG	0.0464
GAGCGATA	-0.128
ACTCCTCG	0.137
ATAATCGG	0.287
ATACCATC	0.145
CCTTGTTA	-0.132
ATCTGATG	-0.131
GCGGAAAC	0.415
AGTCGTTA	-0.244
ACGGTGTA	-0.122
CGTCCCCC	-0.188
CCGGCCCC	0.189
GTTATACA	-0.0537
ACCTTGAG	-0.0954
GGGTAAAC	0.0209
GAACAGTA	0.00011
ACCAGGGT	-0.235
CAGAATGG	0.0132
AAATGTGT	-0.0435
AGACGTCT	-0.265
AGCGAATA	-0.0841
CTGATGTA	-0.0245

Sequence	PBM E-score
TCAATGCA	-0.194
AACTGTAC	-0.229
GTGAATCA	-0.0381
ACGCAGGG	-0.0388
AAGCGGGG	-0.0421
CGTTTAAG	-0.157
AGCTCAGC	-0.143
AACCATCG	0.0696
AAATTTAC	-0.0418
GAAAAACC	0.122
CTCGGTGC	0.0604
CGCACTGC	0.0531
AAATAGGG	0.0666
GGCACTTA	-0.0858
CAGTTAGG	-0.225
AGTCTTAG	-0.224
CACAGCTG	-0.203
CTCACGGC	-0.0134
ATTGTACC	0.028
GGTACCGA	-0.0402
TACGCCGA	-0.0463
GACGAATC	-0.0176
AGTAACAG	-0.0124
CGCTCATA	-0.0487
AGATACCC	0.0996

Sequence	PBM E-score
AAGCCCGG	0.379
GAACGATA	-0.0239
ACATGAGC	-0.107
CAGACCCC	-0.146
ACCTCTGG	-0.182
AAACCCTA	-0.144
CTCGAAAA	-0.218
CAAAAACG	0.152
CGGGGGCA	-0.00755
CAACCAAG	-0.107
CACCGCCA	0.0193
GCGTCGCC	0.106
CAATTGCC	-0.0825
ATGCCCAC	-0.0212
CGGTTCTA	0.0361
CTCCAACC	-0.00089
TAGAGAGA	-0.165
CCCCAGGG	-0.147
ACAAATCA	-0.0555
AGAGATGG	0.0558
GTGATAAC	-0.027
GGATCACA	0.0931
GATAAATA	0.115
GGCTAAAC	-0.135
TGGTTGAA	-0.0988

Sequence	PBM E-score
CACCGAAG	-0.00668
ATGATCCC	0.19
AACGTCAC	-0.0419
GGGCGCAA	-0.0365
GGATTATA	0.195
AGTTCGAG	0.0163
AAATTCAC	-0.0187
CAACGACA	0.0336
CCTTAGTA	-0.0781
AACTCCGC	0.301
CAGACCTA	-0.194
CGCAAGGC	0.172
ATCCTACA	-0.178
CGGAGCAC	0.297
ATCATGCG	-0.0659
ACGGGGAG	0.113
CGTAACAG	0.00621
ATTCAAAG	-0.126
CGCGGGTC	0.331
CGGGGGAG	0.0505
TGCACTAA	-0.0147
AGCACATC	0.0574
